Measured values published in PubChem BioAssay AID686978 (National Center for Advancing Translational Sciences (NCATS), 2013).
The whole screen tested about 420,000 compounds, of which about 64,000 (15%) were called active. This list was built around the results that the source calls inconclusive (neither active nor inactive); the mix of calls is not that of the screen. The call rests on the fitted dose curve; in most records, active means well fitted inhibition curve with a large enough effect; inconclusive means small, poorly fitted or top-dose-only effect; inactive means flat fitted curve, though single readings scatter. No potency is given beside an inconclusive call; the fits are too rough.
Potency means the concentration at half of the fitted maximal effect; tags describe the fitted curve by direction and shape.

Experiment: qHTS for Inhibitors of human tyrosyl-DNA phosphodiesterase 1 (TDP1): qHTS in cells in absence of CPT; further: nearly all actives have a fitted effect of over 55% in size
Details: DT40 Tdp1-/- hTDP1 cells, no CPT, ATP luminescence, 48 h; series mostly up to 46.2 µM
Summary of the method: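 Luminescent ATP content (CellTiter-Glo) served as the growth readout. Knockout chicken DT40 cells expressing human TDP1 were exposed to compounds without camptothecin for a minimum 48 hr at 37 °C.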
For `CCN(CC)c1ccc(NC(=O)C2=CC=CN3CCS(=O)(=O)N=C23)cc1`, the Potency was “inactive”.
For `COc1ccc(CCC(=O)N2c3ccccc3N=C(c3ccc4c(c3)OCO4)C2C(=O)NCc2ccccc2)cc1` (stereo not given), the Potency was inconclusive [inhibitor, single point].
In the case of `COc1cccc(CNC(=O)CCC2CCCN(Cc3cc4ccccc4o3)C2)c1` (stereo not given), the Potency is reported as active: 25.9 µM.
In the case of `COCOc1ccc(C2CC(=O)c3c(OCOC)cc(OCOC)cc3O2)cc1` (stereo not given), the Potency is reported as inconclusive [inhibitor, single point].
With `O=C(NC1CCCC1)C1CCCN1S(=O)(=O)c1cccc2cccnc12` (stereo not given) the Potency was inconclusive [inhibitor, single point].
For `c1csc(COc2ccccc2CNC2CCCCC2)c1`, the Potency was inconclusive [inhibitor, single point].
In the case of `O=C(COC(=O)c1cc([N+](=O)[O-])ccc1N1CCOCC1)NCc1ccc(Cl)cc1Cl`, the Potency is reported as inconclusive [inhibitor, single point].
With `COC(=O)c1cccc(CN2C(=O)SC(Nc3ccc(Cl)cc3)C2=O)c1` (stereo not given) the Potency was “inactive”.
For `CNC(=O)[C@@H]1C[C@H](Sc2nc3ccccc3[nH]2)CN1Cc1ccccc1C(F)(F)F`, the Potency was inconclusive [inhibitor, single point].
In the case of `CCN(CC(=O)Nc1cccc(S(=O)(=O)N2CCCCC2)c1)Cc1ccccc1`, the Potency is reported as active: 23.1 µM.
In the case of `COc1ccc(C(C(=O)NC(C)(C)C)N(Cc2ccc(F)cc2)C(=O)CCC(=O)Nc2cc(C)on2)cc1` (stereo not given), the Potency is reported as inconclusive [inhibitor, partial curve].
With `O=S(=O)(c1ccc(Cl)cc1)N1CCc2ccccc21` the Potency was active: 14.6 µM.
In the case of `O=C(Nc1nonc1-c1ccc(Cl)cc1)c1ccco1`, the Potency is reported as “inactive”.
In the case of `CC1(C)Cc2ccccc2-c2nc(-c3ccccc3)oc(=O)c21`, the Potency is reported as inconclusive [inhibitor, single point].
For `CC(=O)Nc1sc(N/N=C\c2ccccc2Cl)nc1-c1cccs1`, the Potency was active: 18.4 µM.
For `CCOC(=O)c1c(C)oc2nc(C)nc(NCc3ccc(OC)cc3)c12`, the Potency was inconclusive [inhibitor, single point].
For `Cc1noc(/C=C/c2ccco2)c1S(=O)(=O)N1CCC(C(=O)N2CCc3ccccc3C2)CC1`, the Potency was active: 18.4 µM.
In the case of `O=C(Cn1cc(C(F)(F)F)ccc1=O)N/N=C/c1ccc(Cl)cc1`, the Potency is reported as “inactive”.
With `COc1ccc2ccccc2c1/C=N/NC(=O)c1ccccc1F` the Potency was “inactive”.
In the case of `COc1ccc(-c2nnc(NC(=O)CSc3ccccc3)s2)cc1OC`, the Potency is reported as inconclusive [inhibitor, full curve, poor fit].
